# Measured values reported in PubChem BioAssay AID504706 (National Center for Advancing Translational Sciences (NCATS), 2011).
# Hit rate of the full screen: of about 320,000 compounds, about 200 (0.062%) were called active. Inconclusive means that the source gave no clear call. Such entries were picked first, then a sample of the others. Calls come from the whole dose curve; as a rule, active = well fitted activation curve with a large enough effect; inconclusive = small, poorly fitted or top-dose-only effect; inactive = no such curve, though single readings can be large or run the other way. No potency is given beside an inconclusive call; the fits are too rough.
# Assay: qHTS assay for re-activators of p53 using a Luc reporter; note: nearly all actives have a fitted effect of over 45% in size; for activity change, positive = activation: % of control where 0% means no effect
# Settings: H1299 p53-A138V BP100-luciferase reporter, luminescence, 24 h; series mostly up to 92.2 µM; activity change, positive = activation: at the top concentration
# Procedure, shortened: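 H1299 (p53-null), stable ts p53-A138V + BP100-Luc; 1000 cells/well, Opti-MEM/10% FBS; cpd 4 pt, 1:5; 24 h, 37 deg C, 5% CO2; detection reagent 10 min RT; luminescence.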
# Potency is the fitted concentration of half-maximal effect; tags give direction and shape of the fitted curve.
SMILES,Potency,"activity change, positive = activation"
C/C(=N\NC(=S)NCc1ccccc1)c1ccc(Cl)cc1,"inconclusive [activator, single point]",
CCc1ccccc1Nc1nc(N)nc(COC(=O)c2cccn2C)n1,"inconclusive [activator, full curve, poor fit]",
O=c1c(O)c(-c2cc(O)c(O)c(O)c2)oc2cc(O)cc(O)c12,,inactive: -4.44%
COc1ccc(-c2nnc(NC(=O)CS(=O)(=O)c3ccc(F)cc3)o2)cc1,,inactive: 11.2%
COc1cc(/C=N\NC(=O)c2sc(N)nc2C)cc(OC)c1OC,,inactive: -2.02%
CN(C(=O)C(Cl)Cl)C1CC2C=CC1C2 (stereo not given),,inactive: 1.65%
Cc1ccc(CNC(=O)Cc2ccc(-n3cccc3)cc2)cc1,,inactive: 6.74%
O=C(COC(=O)c1ccccc1-n1cnnn1)c1ccc(F)cc1,"inconclusive [activator, partial curve, poor fit]",
Cc1nnc(SCC(=O)NCc2ccc3c(c2)OCO3)s1,"inconclusive [activator, single point]",
COc1ccccc1-c1noc(-c2cccs2)n1,"inconclusive [activator, partial curve, poor fit]",
Cc1ccc(SCCNC(=S)Nc2ccc(C)cc2C)cc1,,inactive: 8.82%
COc1ccc(OCc2cc(C(=O)NC(C)Cn3cncn3)no2)c(Cl)c1 (stereo not given),"inconclusive [activator, full curve, poor fit]",
Cc1ccc(C(=O)/C=C\Nc2ccc(C)c(C)c2)cc1,"inconclusive [activator, partial curve, poor fit]",
CCOc1ccc2nc(N3CCOCC3)nc(C)c2c1,"inconclusive [activator, full curve, poor fit]",
COc1cc(/C=N/O)ccc1OCc1ccc([N+](=O)[O-])cc1,"inconclusive [activator, full curve, poor fit]",
C/C(=N\NC(=O)c1cc(Cl)ccc1O)c1ccc(Br)s1,"inconclusive [activator, full curve, poor fit]",
O=C(NC(=S)NCc1ccccc1)c1ccc2c(c1)OCO2,"inconclusive [activator, single point]",
Fc1ccc(-c2csc(Nc3ccccn3)n2)cc1,"inconclusive [activator, partial curve, poor fit]",
CCCn1c(SCC(=O)NCc2ccccc2)nnc1-c1ccncc1,,inactive: 0.696%
CCc1nnc(NC(=O)CSc2nc3c(cc2C#N)CCC3)s1,"inconclusive [activator, full curve, poor fit]",
CCc1ccc(Nc2oc(C)cc(=O)c2C(C)=O)cc1,"inconclusive [activator, single point]",
O=C(Nc1ccc2c(c1)CCC2)c1cc(F)cc(F)c1,"inconclusive [activator, partial curve, poor fit]",
COc1ccc(-c2csc(NC(=O)c3ccc(OCC(=O)N4CCOCC4)c(OC)c3)n2)cc1OC,,inactive: 5.36%
COc1ccc(/C(N)=N/OC(=O)Cc2cccs2)cc1,"inconclusive [activator, partial curve, poor fit]",

SMILES,Potency,"activity change, positive = activation"
O=C(c1ccc(N2CCN(S(=O)(=O)c3ccccc3)CC2)c([N+](=O)[O-])c1)N1CCOCC1,"inconclusive [activator, partial curve, poor fit]",
O=C(NC(=S)Nc1ncc(Br)cc1Br)c1ccccc1,"inconclusive [activator, partial curve, poor fit]",
Cc1cccc(NC(=O)c2ccc3nccnc3c2)n1,,inactive: 12.2%
COc1ccc(NC(=O)/C(C#N)=C\c2ccc(-c3cccc(C(=O)O)c3C)o2)cc1,,inactive: 7.32%
COc1ccc(CN2CCN(C3CCC3)CC2CCO)c(C)c1C (stereo not given),"inconclusive [activator, single point]",
c1ccc2sc(Sc3ncnc4sccc34)nc2c1,"inconclusive [activator, partial curve, poor fit]",
Cc1cc2ccc(C)c(C)c2nc1SCC#N,"inconclusive [activator, single point]",
COc1ccc(-n2nc(C(=O)NCC(=O)N3CCCCC3)c3ccccc3c2=O)c(OC)c1,"inconclusive [activator, partial curve, poor fit]",
CC(=O)Nc1cc2nc(C)n(Cc3ccccc3[N+](=O)[O-])c2nc1C,,inactive: 0.2%
CCCCN1C(=O)/C(=C/C=C2\SCCN2C)SC1=S,"inconclusive [activator, full curve, poor fit]",
CN(Cc1ccccc1)C(=O)COC(=O)c1cc([N+](=O)[O-])ccc1N1CCOCC1,"inconclusive [activator, single point]",
Cc1cc(SCc2ccc([N+](=O)[O-])cc2)nc(=O)[nH]1,,inactive: 5.99%
Cc1cccc(N2C(=O)CC(N(O)c3ccccc3)C2=O)c1 (stereo not given),"inconclusive [activator, full curve, poor fit]",
CC(C)C[C@H](NC(=O)c1nc[nH]c1C(=O)N1CCC(C)CC1)C(=O)OCc1ccccc1,,inactive: -8.04%
C/C(=N\NC(=O)c1ccncc1)c1ccc(NC(=O)c2ccc(Cl)cc2)cc1,"inconclusive [activator, partial curve, poor fit]",
Cc1c(Cl)cnc(NC(=O)COC(=O)c2ccc(S(=O)(=O)NCc3ccco3)cc2)c1Cl,"inconclusive [activator, partial curve, poor fit]",
CC1Cc2ccccc2N1C(=S)NC(=O)c1ccc(Cl)cc1Cl (stereo not given),,inactive: 7.87%
O=C(Nc1cccnc1)Nc1ccc2c(c1)OCO2,"inconclusive [activator, partial curve, poor fit]",
Cc1ccc(Nc2ncccc2C(N)=O)cc1,"inconclusive [activator, partial curve, poor fit]",
CCC(C)(C)NC(=O)/C=C/c1cnc2ccccc2n1,"inconclusive [activator, partial curve, poor fit]",
COc1ccccc1OCC(=O)Nc1ccc(O)cc1C(=O)O,,inactive: 2.52%
C/C(=N\NC(=O)c1ccco1)c1ccc(NC(=O)c2ccccc2)cc1,,inactive: 5.98%
COc1cccc(CNc2cnc3ccccc3c2)c1O,"inconclusive [activator, partial curve, poor fit]",
Cc1cccc(NC(=S)c2nc3ccccc3s2)c1,"inconclusive [activator, partial curve, poor fit]",

SMILES,Potency,"activity change, positive = activation"
Cc1cc(/C=N/NC(=O)c2ccccc2F)c(C)n1-c1ccccc1,"inconclusive [activator, full curve]",
Cc1ccc(C(=O)/C=C/c2ccc(F)cc2)o1,active: 44.7 µM,
CC(=O)N1CCN(CC(=O)Nc2cc(S(=O)(=O)N3CCOCC3)ccc2C)CC1,,inactive: -6.71%
Cc1ccc(C(=O)OCC(=O)c2ccccc2)cc1,"inconclusive [activator, partial curve, poor fit]",
CC(=O)c1ccc(NC(=S)NC(=O)/C=C/c2ccccc2)cc1,"inconclusive [activator, partial curve, poor fit]",
COc1ccc(C)cc1NC(=O)NNC(=O)c1cc2ccccc2cc1O,"inconclusive [activator, partial curve, poor fit]",
O=C(CN1C(=O)S/C(=C\C=C\c2ccccc2)C1=O)N1CCOCC1,,inactive: 2.03%
Nc1nc(Cl)nc2ccc(Br)cc12,"inconclusive [activator, partial curve, poor fit]",
CC1CCc2nc(NC(=O)Nc3ccc4c(c3)OCO4)sc2C1 (stereo not given),"inconclusive [activator, partial curve, poor fit]",
Cc1cc(C(=O)N2CCN(c3ccccc3Cl)CC2)c(C)o1,"inconclusive [activator, partial curve, poor fit]",
Cc1cccc(C(=O)Nc2nnc(-c3cccnc3)o2)c1,,inactive: 0.273%
O=C(CNC(=S)N(CCCN1CCOCC1)Cc1cccs1)NCc1ccc(Cl)cc1,,inactive: -7.72%
O=C(Nc1nnc(C2CC2)s1)c1cc2ccccc2o1,"inconclusive [activator, partial curve, poor fit]",
Cc1ccc(C(=O)/C=C/c2ccccc2)o1,"inconclusive [activator, partial curve, poor fit]",
O=C(OCc1ccc(Br)cc1)c1cccc(-c2nnc(-c3ccccc3)o2)c1,"inconclusive [activator, full curve, poor fit]",
O=[N+]([O-])c1ccc(Cl)c2cccnc12,,inactive: 2.3%
CC(C)(C)C(=O)Nc1ccc(C(=O)OC2CCCCC2)cc1,"inconclusive [activator, partial curve, poor fit]",
Cc1[nH]c2ccccc2c1C(=O)CSc1ccc(F)cc1,"inconclusive [activator, partial curve, poor fit]",
N/C(Cc1cccs1)=N\OC(=O)COc1ccc(Br)cc1Cl,"inconclusive [activator, full curve]",
COc1ccc2c(c1OC)C(=O)N1c3ccccc3COC21 (stereo not given),"inconclusive [activator, partial curve, poor fit]",
Cc1ccc(Oc2ncnc3sccc23)cc1,"inconclusive [activator, partial curve, poor fit]",
COCC(C)n1c(C)cc(C(=O)CSc2nnnn2C2CCCC2)c1C (stereo not given),"inconclusive [activator, full curve, poor fit]",
